Laboratory results taken from the supplement of paper PMC12632987.
In all, about 1,800 sequences were measured (“median log2 fold change of GCK-ALFA target abundance (FLAG IP / Myc IP barcode read proportion)”: median about 0.14, lowest 2% from about -0.84 on). This is one part of the list.

T1: TRAF2, Q12933
T1 chain: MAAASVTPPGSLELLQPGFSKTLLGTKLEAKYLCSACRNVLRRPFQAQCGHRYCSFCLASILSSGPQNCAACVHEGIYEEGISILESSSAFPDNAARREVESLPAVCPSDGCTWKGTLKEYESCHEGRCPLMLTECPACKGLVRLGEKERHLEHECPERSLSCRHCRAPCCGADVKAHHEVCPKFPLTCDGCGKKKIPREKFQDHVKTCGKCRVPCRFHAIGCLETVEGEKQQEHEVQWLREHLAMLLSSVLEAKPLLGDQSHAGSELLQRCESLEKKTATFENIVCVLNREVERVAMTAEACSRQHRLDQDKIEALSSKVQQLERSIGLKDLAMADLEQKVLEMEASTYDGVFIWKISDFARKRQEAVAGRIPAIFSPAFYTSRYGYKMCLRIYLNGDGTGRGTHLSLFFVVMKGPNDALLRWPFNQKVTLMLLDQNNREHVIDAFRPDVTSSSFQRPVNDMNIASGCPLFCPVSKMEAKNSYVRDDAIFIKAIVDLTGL

B1: traf2_out_1_158_912 (protein)
chain: DTKKKLMLSSVELVVKDAVESARENGDEETAKAIEELGEKIIELVKKLAIEEGKSVEEVIEEIDKLAAEFKAKADPETAAAIERLTRRVKSALRQVEKLM
B2: traf2_out_18_117_1793 (protein)
chain: SELDEIIKELEKLAEELDKAASRLGKLMLEKWEELSPEERSEAMDVLADLTAVRQEALRLIQEIKAGKIPLEEAKKRAEELKKRAEEALKRAEEMIKKIE
B3: traf2_out_1_158_907 (protein)
chain: STDVSLLNAVATSTLDVYAENAKERGLEKAAALFEELKKEVEELYEKNKDASLEEFAAKLLALLDEFEEKSKSLPAEDRALVDIAIRQARSGILQVVKLA
B4: traf2_out_11_104_649 (protein)
chain: LTREQAREFNDFAMEKRDKALEIAKKVAEELKKAGHEEMAAQVEALINNPGGGISDIRNLLEELKPKLSPEMQKVAEKAIEELEKLQKEVSDKLNELEAK
B5: traf2_out_19_16_1975 (protein)
chain: KEEELKELEERLEKIERRVKELEAYFEANKDTLTREELTDLMVELSELRREAQEIAQKLEELKDYKPEEVKELLERAEEIIERAQRLMNEAYKKYEELLK
B6: traf2_out_8_174_2572 (protein)
chain: DEEKRLKVVADFSTEMADILDEFEEELKKASDLPLEELKKKAEELKKEALEKIDKLKKEWEAKVDEETAKLVQRAANSAKQQIENMAKGAILRKELEDAA
B7: traf2_out_17_162_1570 (protein)
chain: EELEKELEKLKKELEELKKKLEEFKKLLPKFPEMSKEELTDLLVEVSEARRRARELAERLKELGKKLGSEELKKLVEEAEKIAEELNRIANEIYKEIEKK
B8: traf2_out_18_117_1772 (protein)
chain: SEREEIIKELEELAEEVGRAASRLGKAVLEHWEELTPEEKSEAMDVLADLSEVRREALELIHEIKEKNLPLEEAKKKAEELKKKAEEALKRAEEMLEKIK
B9: traf2_out_11_155_702 (protein)
chain: EEKKKLNNELVDKMIEIEEELKEEVKKIIEEAAKKHPEHKEELEKVVKESEPFSGRTFARIAAEKFKELGLEEEAEKIEKLLEEAQKKMNEIYKEIEAKR
B10: traf2_out_16_177_1461 (protein)
chain: EVDKLMDRLVGLSLIQRAARYIVAGKEEEAKKYLEEARKEAEEAGDEETLKRIKELEELAKKNTEEALKKIEELAREAQKEAQRLADEIEELLKKRAEAE
B11: traf2_out_5_63_2345 (protein)
chain: SERDELTALAREADRLVREALEAAKRGEEEEVERLLEEAVKDEELARLALGILRGEERYYKLLGDKPEEAEIARRLRERLEELLERRREERRREEEERRR
B12: traf2_out_3_89_2309 (protein)
chain: AAARAATIAEAERRMDAYAEGFRRSARRVAKEMLADGMSLDTLRGVLEAARSALLEDFRESLREAGLSDEEIDALLARLNARLDAIVDEVVAAAEAERAA
B13: traf2_out_15_180_1316 (protein)
chain: MTEEELEKRIEKANEVADKAQDRLKELLAANPGLSPEERAALRALARSLTTLYFNGEYEEAEAALAAAEARLSPEAAAVARELAEYIKEVVEEAKKELEE
B14: traf2_out_6_3_2506 (protein)
chain: EDEEERERNERAFEELAEMSPETLKTALETELERLRELVADPNASESDVLAAASAAKLLIEVLKKNAEKNPEIKEELEEFIEKAEKELEELMEEWKKKQA
B15: traf2_out_8_174_2566 (protein)
chain: GEREILKIAANVGLEFEKKIEALKEEAKKLLEESPEAALKYVEEEGKKLKEELDKKEEEASKNYSPELQELIKRELNSSKQRVDNLLEGLKLRVEAEKKA
B16: traf2_out_20_3_2057 (protein)
chain: EELEEKIEELLKELEKKLEELKKLLDPEDAKRLEEAWEEVLRAREEGLDEFLVAISRLRRLLLELAERARAEGREEEAALLEEAADIAGKIAHLVYLKIQ
B17: traf2_out_1_27_1010 (protein)
chain: SDEEFRELIREADRALGSLSPEEALAAAREAVRRALELGVGEARHLAVVLILSQSDEELAEALLEAIEEVLREAGVSEEEIEEIRRRAESGRKRLKEALA
B18: traf2_out_11_169_849 (protein)
chain: EEAAKNRAIIDKALELTDKAKAELKEHALALAKEAGLDEAEVKAIFEANAGKSLSAVAAALIDWFKSKGKEDAAAKVLEKYEELQEKINKEMTAFLKELE
B19: traf2_out_20_3_2115 (protein)
chain: KELEEELEKELEEALKLLKEAAKLADPETAKVLEELAKELKKSRELSYSDRLVVVSEIRRKVRELAQKAKEKGDEELAKVLEEAAEKLNRAAGLLMKIIE

Target: T1, TRAF2, Q12933
Assay: median log2 fold change of GCK-ALFA target abundance (FLAG IP / Myc IP barcode read proportion) (log2 ratio); each designed protein is fused to an ALFA-tag nanobody in HEK293 cells to bring the named protein to FLAG-tagged glucokinase (GCK); Myc marks an untargeted standard; higher = target protein stabilised (more abundant)
Settings: target protein: 3xFLAG-MCP-GCK-ALFA reporter; HEK293 landing pad (RPLP)
Summary of the method: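 HEK293 landing-pad cells received a recombined binder library fused to the ALFA nanobody and were induced with 2 μg mL^−1 doxycycline, then transfected with a plasmid encoding a FLAG-tagged target and a Myc-tagged standard. Lysates were collected after 48 h for anti-FLAG and anti-Myc immunoprecipitation, and the circular RNA barcodes were reverse transcribed, amplified and sequenced. Target abundance for each binder is the median log2 ratio of FLAG to Myc barcode read proportions. Barcodes had to reach a proportion of at least 10^−7 in both replicates, each binder needed at least 3 barcodes per replicate, a pseudocount of 10^−6 was applied, and the two replicates were pooled.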
B1 was tested, and the “median log2 fold change” value was 0.0872.
B2 was tested, and the “median log2 fold change” value was 0.574.
With B3 the “median log2 fold change” value was 0.206.
B4 was tested, and the “median log2 fold change” value was 0.21.
For B5, the “median log2 fold change” value was 0.162.
With B6 the “median log2 fold change” value was 0.209.
With B7 the “median log2 fold change” value was 0.752.
B8 was tested, and the “median log2 fold change” value was 0.12.
B9 was tested, and the “median log2 fold change” value was 0.328.
In the case of B10, the “median log2 fold change” value is reported as -0.0133.
In the case of B11, the “median log2 fold change” value is reported as 0.129.
B12 was tested, and the “median log2 fold change” value was 0.0782.
With B13 the “median log2 fold change” value was 0.178.
With B14 the “median log2 fold change” value was 0.236.
With B15 the “median log2 fold change” value was 0.206.
In the case of B16, the “median log2 fold change” value is reported as -0.13.
B17 was tested, and the “median log2 fold change” value was -0.00892.
In the case of B18, the “median log2 fold change” value is reported as 0.136.
B19 was tested, and the “median log2 fold change” value was 0.0891.
